From the supplement of paper PMC3334620
The full ranking holds about 33,000 sequences; the median of “E-score (-0.5 to 0.5)” is about -0.016, and the highest 2% start at about 0.31. The list shows a part of the results.

These sequences were tested against Cst6 (UniProt P40535) (assay: PBM E-score (8-mer binding enrichment) (E-score (-0.5 to 0.5)); higher = stronger / more preferred TF binding; most listed sequences are background and not binding sites). Conditions: protein concentration: 200 nM; construct: GST-DNA-binding domain.
How it was run: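 Yeast transcription factors carrying a GST tag, as full-length proteins or DNA-binding domains, were produced by PURExpress in vitro transcription/translation. About 100-200 nM protein was applied to universal all-10-mer Agilent arrays, double-stranded by primer extension on fresh or once-stripped slides. Bound protein was detected with fluorescent anti-GST, and scans were normalised with masliner. The Universal PBM Analysis Suite gave each ungapped eight-base word, pooled with its reverse complement, an E-score, a modified Wilcoxon-Mann-Whitney statistic.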

Row | Sequence | PBM E-score
1 | CCTATTGC | -0.136
2 | AAATACCT | -0.0674
3 | CCATAACG | 0.219
4 | GAGCCTGA | -0.0725
5 | GGAAAATA | 0.0785
6 | AACGTCTA | -0.105
7 | GAAGGTTA | -0.0813
8 | CCCTTGAG | -0.141
9 | GCCACTGA | -0.0559
10 | ATAACTTC | 0.157
11 | AAGGAGGA | -0.121
12 | CATTTGTC | 0.0906
13 | GTAGAGGA | -0.322
14 | GCCAGAGA | -0.22
15 | CATGAGGG | -0.142
16 | ACCCTCGG | -0.343
17 | CATACTGA | 0.104
18 | GACATACA | 0.292
19 | ACTAACTG | 0.0743
20 | ACTTATCC | 0.0806
21 | AGTTGAGG | -0.14
22 | GCCTGGAC | -0.287
23 | AAGGTTTC | 0.0192
24 | ACCTGCTA | -0.0708
25 | GAGCTTGA | -0.199

Row | Sequence | PBM E-score
26 | CGGAACCC | -0.0911
27 | AGAGAAGG | -0.21
28 | ATTGAATC | -0.013
29 | ATTTCACG | -0.00077
30 | AGACTAAG | -0.0239
31 | ATGGGCGA | -0.215
32 | ACTATGAA | 0.107
33 | CGCAGCTC | -0.0835
34 | GTCCGCAA | 0.017
35 | ATGGCAGG | -0.213
36 | GGAGTCAC | -0.112
37 | GCCTTTCA | 0.0677
38 | AGACAAGG | -0.181
39 | CGGCAGCA | -0.176
40 | TCGTGGCA | 0.062
41 | CGACTTCC | -0.0303
42 | GCGCTTAA | -0.00912
43 | GCGTCTAA | -0.0107
44 | AAATACTC | 0.109
45 | AGGTCGCG | -0.123
46 | ACCTACCA | -0.162
47 | CGAGAGGC | -0.226
48 | CGCTAGAA | -0.194
49 | ATGGCGGG | -0.189
50 | ATGCGCTC | -0.0659

Row | Sequence | PBM E-score
51 | ACACCTTA | 0.12
52 | TGATTCCA | 0.0648
53 | ACATAAGA | 0.263
54 | ATTGTCGA | 0.026
55 | AATGCAGG | 0.0163
56 | CACATGTC | -0.0785
57 | ATCACGAC | 0.106
58 | CTGATCAG | -0.0835
59 | AACAATAG | -0.0656
60 | CGTATCAA | 0.0732
61 | GCACTTGA | 0.0821
62 | AGATTCTC | 0.0378
63 | CAATTCCG | -0.0561
64 | GACAGACC | -0.0957
65 | AACAGACA | 0.0199
66 | AGATGCAA | -0.0674
67 | AACAGCAG | -0.06
68 | ATTAAAAC | 0.213
69 | GCGCCAAC | 0.0978
70 | CGCGGGAG | -0.295
71 | TCTTCTCA | -0.0405
72 | ACCAGAGT | -0.209
73 | AGAGTCCT | -0.343
74 | GATCCTGC | -0.187
75 | CCCGAAGC | -0.201

Row | Sequence | PBM E-score
76 | TACTGCCA | -0.125
77 | CACTTATG | 0.202
78 | GACCCAGA | -0.059
79 | AGTGTACC | -0.245
80 | CCGATGAA | 0.0447
81 | TAGCCCGA | -0.177
82 | GCCGGCGC | 0.0813
83 | CTGGTTCC | -0.0459
84 | CTTTTTTC | 0.0653
85 | AGTGCGCA | -0.0548
86 | CAGGAGCC | -0.208
87 | ACTACGAT | 0.16
88 | ATGCGCCG | 0.108
89 | AGGTTGGC | -0.197
90 | GTGGCACA | -0.0556
91 | AGGAATCG | -0.0847
92 | CCGAGCGG | -0.178
93 | AGCCTCAG | -0.144
94 | GTCATTTA | 0.368
95 | CATGGTGC | -0.0706
96 | ACTTAGGG | -0.111
97 | CGGTTTGC | -0.148
98 | AAAGATTG | -0.0706
99 | CTGAATCC | 0.0148
100 | GGGCGGCA | -0.0996

Row | Sequence | PBM E-score
101 | CGTGGTGC | -0.177
102 | ATTGGTGA | 0.17
103 | GGATGAGA | -0.14
104 | GAGTTCAA | 0.00704
105 | CCACATGC | -0.0181
106 | ATTACACA | 0.318
107 | AGGCGATC | 0.107
108 | AAGATCCC | -0.186
109 | ACCGCGAT | 0.0943
110 | AAGACTGC | -0.128
111 | ACACAGCA | 0.082
112 | TAAATAGA | 0.115
113 | AGCGACTG | -0.0304
114 | CAGGAGCA | -0.099
115 | GCGGCCGA | 0.0546
116 | CATCGTCC | 0.14
117 | ATCACACG | 0.21
118 | ATTCTGAA | 0.0278
119 | CGGTTTGA | 0.0706
120 | CACCGCGC | 0.122
121 | AAGTTTAG | 0.0595
122 | AGGGTTTG | -0.0896
123 | GAGCAGAA | -0.0753
124 | CGCGCCTA | 0.202
125 | ACTTGGAT | -0.00239

Row | Sequence | PBM E-score
126 | GGATAGGA | -0.235
127 | TGAGTAAA | 0.0371
128 | ACAAGGCG | 0.223
129 | TCGCGCAA | 0.15
130 | TTAAATAA | 0.18
131 | CGTGGAGC | -0.156
132 | CAGGAATG | 0.0203
133 | ATCCGTAA | 0.0347
134 | CAACACTA | 0.104
135 | AACACATT | 0.0628
136 | AGTTGTCG | 0.0536
137 | GAAATGGA | 0.0199
138 | ACTATGCT | 0.00498
139 | AACTCGGG | -0.181
140 | AGATGTCG | -0.143
141 | ACCCGCGA | 0.0243
142 | CATGGTCG | -0.104
143 | GGCAACCC | -0.283
144 | AGGCGGCA | 0.119
145 | CCTAAGAC | -0.191
146 | ATAACCGG | -0.174
147 | AGACTATG | -0.102
148 | ATGAGTTC | -0.0692
149 | GTATTATA | 0.243
150 | AATATAGT | 0.256

Row | Sequence | PBM E-score
151 | ATATGAAA | 0.182
152 | ATAATTGG | -0.0395
153 | TATCAGAA | 0.146
154 | CTGCAGTC | -0.237
155 | TCCGACCA | -0.191
156 | AAATTACC | 0.199
157 | AGAGTAGC | -0.0589
158 | GAGAAAAC | 0.0868
159 | AAAAAAAT | 0.244
160 | TGGTAACA | 0.125
161 | GAAAACGA | 0.0922
162 | CTCAGAGC | -0.115
163 | CGAGCGGA | -0.0645
164 | CAGTAATA | 0.277
165 | CAATGCAC | 0.0118
166 | GGGACTAC | -0.309
167 | AATATGCC | 0.0584
168 | CTTGGTAC | 0.0907
169 | CTTTTCAC | 0.11
170 | CTGATTAA | 0.161
171 | AGAGGCTC | -0.28
172 | CATTAATG | 0.122
